According to PubChem BioAssay AID504332 (National Center for Advancing Translational Sciences (NCATS), 2011):
The whole screen tested about 350,000 compounds, of which about 31,000 (8.9%) were called active. The inconclusive results got no clear call from the source; some entries with a clear call stand among them for comparison. The call rests on the fitted dose curve; in most records, active means well fitted inhibition curve with a large enough effect; inconclusive means small, poorly fitted or top-dose-only effect; inactive means no such curve, though single readings can be large or run the other way. Where the call is inconclusive, the potency comes from a doubtful curve fit.

target: Histone-lysine N-methyltransferase EHMT2 (Homo sapiens) (UniProt Q96KQ7); assay: qHTS Assay for Inhibitors of Histone Lysine Methyltransferase G9a; details: G9a H3K9 monomethylation, AlphaScreen, 2 h; activity, negative = inhibition: at 59 µM (top of the series) unless noted; further: nearly all actives have a fitted effect of over 75% in size
Sequence of UniProt Q96KQ7 (Q96KQ7 whole entry, looked up): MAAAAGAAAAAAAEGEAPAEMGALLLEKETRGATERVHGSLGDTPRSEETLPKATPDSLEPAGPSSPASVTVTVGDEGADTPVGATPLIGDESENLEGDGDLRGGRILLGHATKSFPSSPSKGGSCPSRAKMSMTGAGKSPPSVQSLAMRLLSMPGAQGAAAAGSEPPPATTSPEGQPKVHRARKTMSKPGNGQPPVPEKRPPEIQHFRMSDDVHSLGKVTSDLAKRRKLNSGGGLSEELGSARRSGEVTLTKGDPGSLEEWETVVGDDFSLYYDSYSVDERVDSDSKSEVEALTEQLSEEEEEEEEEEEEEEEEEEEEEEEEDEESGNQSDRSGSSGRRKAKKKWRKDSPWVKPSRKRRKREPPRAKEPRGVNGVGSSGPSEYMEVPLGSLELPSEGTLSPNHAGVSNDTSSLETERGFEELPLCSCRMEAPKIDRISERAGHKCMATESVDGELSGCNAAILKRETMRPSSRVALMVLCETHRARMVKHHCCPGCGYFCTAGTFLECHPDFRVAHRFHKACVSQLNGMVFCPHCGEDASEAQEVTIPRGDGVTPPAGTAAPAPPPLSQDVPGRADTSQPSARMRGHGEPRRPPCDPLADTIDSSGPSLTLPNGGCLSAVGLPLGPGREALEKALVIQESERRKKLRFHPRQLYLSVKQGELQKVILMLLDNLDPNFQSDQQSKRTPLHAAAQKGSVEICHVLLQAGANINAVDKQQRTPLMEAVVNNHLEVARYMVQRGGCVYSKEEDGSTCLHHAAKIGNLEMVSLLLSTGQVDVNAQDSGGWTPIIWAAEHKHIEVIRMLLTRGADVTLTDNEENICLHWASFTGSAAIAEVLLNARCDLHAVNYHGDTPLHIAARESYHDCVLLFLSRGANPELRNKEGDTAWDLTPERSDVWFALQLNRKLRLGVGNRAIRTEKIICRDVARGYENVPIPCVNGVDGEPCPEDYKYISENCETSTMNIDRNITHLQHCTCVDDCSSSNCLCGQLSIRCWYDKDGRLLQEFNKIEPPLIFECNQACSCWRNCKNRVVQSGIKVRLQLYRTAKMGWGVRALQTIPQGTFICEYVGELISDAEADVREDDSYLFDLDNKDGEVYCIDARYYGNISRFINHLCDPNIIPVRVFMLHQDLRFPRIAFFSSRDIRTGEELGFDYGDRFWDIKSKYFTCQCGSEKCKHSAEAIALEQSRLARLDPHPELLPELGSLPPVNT
Summary of the method: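 Signal arises when biotinylated H3K9 peptide, once monomethylated, bridges streptavidin donor and antibody-captured acceptor beads. Enzyme at 20 nM was preincubated 15 min with test compounds; peptide 500 nM and SAM 20 uM then reacted for 2 h.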
On the % scale 0 is the no-effect control and ±100 the full control effect; potency means the concentration at half of the fitted maximal effect; tags describe the fitted curve by direction and shape.

SMILES	Potency	activity, negative = inhibition
O=C(Nc1ccc2ccccc2c1)c1cccc(F)c1	inconclusive: 79.4 µM [inhibitor, partial curve, poor fit]	–
Cc1nn(C(C)C(=O)N/N=C/c2ccc(N(C)C)cc2)c(C)c1[N+](=O)[O-] (configuration not stated)	active: 56.2 µM	–
COc1ccc(NC(=O)C2CCN(C(=O)c3sc4nc[nH]c(=O)c4c3C)CC2)cc1Cl	–	inactive: 2.03%
CN(CC(=O)Nc1ccc(Br)cc1)S(=O)(=O)c1cccc2nsnc12	–	inactive: -21.3%
Cc1cc2nc(CCN(Cc3cccnc3)C(=S)Nc3ccccc3)[nH]c2cc1C	inconclusive: 3.55 µM [inhibitor, full curve, poor fit]	–
C/C(=N\NC(=O)COc1ccc(C(C)(C)C)cc1)c1ccc2c(c1)OCCO2	–	inactive: 5.08%
CCOC(=O)C(=CNc1cccc(C)c1C)C(=O)OCC	–	inactive: 5.83%
COc1ccccc1N1CCN(C(=O)c2cc(-c3cccc(Cl)c3)on2)CC1	inconclusive: 79.4 µM [inhibitor, partial curve, poor fit]	–
COc1ccc(C(=O)N/N=C/C(=O)c2ccccc2)cc1	–	inactive: 27% [at 102 µM]
CCOc1ccc2nc(NC(=S)N(C)C)sc2c1	active: 1.58 µM	–
COc1ccc(NC2=C(Cl)C(=O)N(CCc3ccccc3)C2=O)cc1	inconclusive: 89.1 µM [inhibitor, single point]	–
CN1CCN(S(=O)(=O)c2cccc(C(=O)Nc3sc4c(c3C(N)=O)CCCC4)c2)CC1	inconclusive: 8.91 µM [inhibitor, partial curve, poor fit]	–
COC(=O)c1c(-c2cccs2)csc1NC(=O)c1cccnc1	–	inactive: 7.59%
COc1ccc(NC(=O)c2oc3ccccc3c2NC(=O)c2cc(C)cc(C)c2)c(OC)c1	–	inactive: -0.889%
O=S(=O)(c1ccc(F)cc1)N1CCN(CC(O)COc2ccccc2F)CC1 (configuration not stated)	active: 8.91 µM	–
CN1CCN(C2=C(Cl)C(=O)N(c3cccc(Cl)c3)C2=O)CC1	–	inconclusive: -117% [inhibitor]
Cc1ccc(C)c(NC(=O)CCC(=O)NNC(=O)C(c2ccccc2)c2ccccc2)c1	–	inactive: -7.37% [at 12.7 µM]
COC(=O)C1C(=O)C2=C(CC1C)NC(C)=C(C(=O)OC1CCCCC1)C2c1ccc(N(C)C)cc1 (configuration not stated)	inconclusive: 7.94 µM [inhibitor, partial curve, poor fit]	–
Cc1ccc(CSCC(=O)N2CCOCC2)cc1	–	inactive: -21% [at 102 µM]
CCc1ccc(N2CC(C(=O)Nc3ccc(S(=O)(=O)N4CCOCC4)cc3)CC2=O)cc1 (configuration not stated)	active: 50.1 µM	–
CCCCc1cc(=O)oc2c(C)c(OCC(=O)NCC3CCC(C(=O)O)CC3)ccc12 (configuration not stated)	active: 79.4 µM	–
CN(Cc1ccccc1)c1ccc(-c2nc(-c3ccccc3)no2)cc1[N+](=O)[O-]	inconclusive: 39.8 µM [inhibitor, single point]	–
Cc1ccc(CNC(=O)c2cc3c(-c4ccc(Cl)cc4)nn(C)c3s2)o1	active: 50.1 µM	–
O=C(Nc1ccc(F)cc1)c1ccc(CN2CCc3ccccc3C2)cc1	inconclusive: 79.4 µM [inhibitor, single point]	–

SMILES	Potency	activity, negative = inhibition
O=C(CN1C(=O)c2cccc3cccc1c23)Nc1cccc(F)c1	–	inactive: -4.69%
O=S(=O)(Nc1ccc(N2CCOCC2)cc1)c1c(F)cc(F)cc1Br	active: 39.8 µM	–
COc1ccc(/C=C2\NC(=S)N(CC3CCCO3)C2=O)c(OC)c1 (configuration not stated)	–	inactive: 39% [at 12.7 µM]
Cc1cc(C)c(NC(=O)C(=O)NCC(c2cccnc2)N2CCN(c3ccccc3F)CC2)c(C)c1 (configuration not stated)	–	inactive: -1.87%
COc1ccc(Cl)cc1NC(=O)CSc1nnc2[nH]c(=O)cc(-c3ccccc3)n12	–	inactive: 32.6%
C=CCNC(=O)c1ccccc1NC(=O)C1CC(=O)N(C(C)C)C1 (configuration not stated)	–	inactive: 8.33% [at 0.501 µM]
O=C(Nc1cccc(-c2cscn2)c1)C1CCN(Cc2ccsc2)CC1	inconclusive: 56.2 µM [inhibitor, partial curve, poor fit]	–
COC(=O)c1c(NC(=O)CSc2nnnn2-c2ccccc2)sc2c1CCC(C(C)(C)C)C2 (configuration not stated)	inconclusive: 20 µM [inhibitor, partial curve, poor fit]	–
C(=N/N1CCN(c2ccccc2)CC1)/c1ccncc1	inconclusive: 56.2 µM [inhibitor, partial curve, poor fit]	–
Cc1ccc(OCc2nc(C#N)c(NCCc3ccccc3)o2)cc1	inconclusive: 31.6 µM [inhibitor, partial curve, poor fit]	–
Nc1nc(-c2ccco2)nn1C(=O)CCc1ccccc1	inconclusive: 2.24 µM [inhibitor, single point]	–
Cc1ccc(C)c2[nH]c(=O)c(CCNC(=O)C(C)(C)C)cc12	inconclusive: 12.6 µM [inhibitor, partial curve, poor fit]	–
Cn1c(CCc2ccccc2)nnc1SCC(=O)N1CCCC1	–	inactive: -21%
O=C(N/N=C/c1ccc(N2CCOCC2)c([N+](=O)[O-])c1)c1ccc(F)cc1	inconclusive: 39.8 µM [inhibitor, single point]	–
COC(=O)c1ccccc1NC(=O)c1oc2ccc3c(c2c1C)C(=O)CC(C)(C)O3	–	inactive: -0.268%
Cc1nn(CC(=O)N2CCN(Cc3ccccc3)CC2)c(=O)c2ccccc12	–	inactive: -36.5% [at 12.7 µM]
CCN(CC(=O)NCc1cccs1)C(=O)c1cc(S(=O)(=O)N2CCOCC2)ccc1C	inconclusive: 22.4 µM [inhibitor, partial curve, poor fit]	–
O=C(C(c1ccccc1)c1ccccc1)N(Cc1ccco1)C1CCS(=O)(=O)C1 (configuration not stated)	inconclusive: 50.1 µM [inhibitor, partial curve]	–
COCC(C)n1c(SCc2nc(N)nc(Nc3ccccc3C)n2)nc2ccccc2c1=O (configuration not stated)	–	inconclusive: -60.9% [inhibitor]
COc1cccc(NC(=O)CSc2ccc(-c3sc(C)nc3C)nn2)c1	–	inactive: 14.4% [at 102 µM]
CCOC(=O)c1cc2c(N)c(C(=O)c3cc(C#N)c(SC)nc3C)sc2nc1C	active: 44.7 µM	–
O=C(Nc1cc2c3c(c1)CC(=O)N3CCC2)c1ccccc1Br	–	inactive: 13.5% [at 102 µM]
O=C1CN(C(=O)COc2ccccc2)C(c2ccc(F)cc2)c2cc(Br)ccc2N1 (configuration not stated)	–	inactive: -1.18%
COc1cc(/C=N/Nc2ccc(Cl)nn2)cc(OC)c1O	active: 15.8 µM	–

SMILES	Potency	activity, negative = inhibition
Cc1cccc(N2CC(C(=O)Nc3nc4ccc(S(C)(=O)=O)cc4s3)CC2=O)c1C (configuration not stated)	inconclusive: 89.1 µM [inhibitor, single point]	–
Cc1oc(-c2ccccc2F)nc1CSCC(=O)NCc1ccc2c(c1)OCO2	inconclusive: 89.1 µM [inhibitor, single point]	–
O=C(CCn1cnnn1)NC1CCCN(Cc2ccccc2F)C1 (configuration not stated)	–	inactive: 14.6% [at 102 µM]
Oc1ccc2ccccc2c1C=NCc1cn2ccsc2n1	active: 8.91 µM	–
COc1ccc(NC(=O)CSc2nc3[nH]ncc3c(=O)n2-c2ccccc2OC)cc1OC	inconclusive: 79.4 µM [inhibitor, single point]	–
Cc1ccc(Cl)cc1NC(=O)Nc1cn(CC(C)C)c(=O)c2ccccc12	inconclusive: 39.8 µM [inhibitor, single point]	–
COc1ccccc1NC(=O)c1ccc(C(=O)c2ccccc2)o1	inconclusive: 89.1 µM [inhibitor, partial curve, poor fit]	–
CCOc1ccc(N(CC)C(=O)CCS(=O)(=O)c2cccc3nonc23)cc1	–	inactive: 8.04% [at 102 µM]
Cc1nnc(C)c2c(C)n(-c3ccccc3)c(C)c12	–	inactive: -15.9% [at 102 µM]
CCCCc1ccc(C2C(C#N)=C(N)SC(N)=C2C#N)s1	inconclusive: 2.51 µM [inhibitor, partial curve, poor fit]	–
O=S(=O)(c1ccccc1Br)N1CCN(c2ncccn2)CC1	–	inactive: 1.53% [at 102 µM]
CCN(CC)CC(=O)Nc1sc(C)c(C)c1C(=O)c1ccc(C)cc1	inconclusive: 39.8 µM [inhibitor, partial curve]	–
CCOc1ccc(S(=O)(=O)Nc2ccc3c(c2)OCO3)c2cccnc12	inconclusive: 70.8 µM [inhibitor, partial curve, poor fit]	–
Cc1ccc(C(=O)O/N=C(\N)Cc2ccc([N+](=O)[O-])cc2)c(Cl)c1	inconclusive: 50.1 µM [inhibitor, partial curve]	–
Cc1cc(NC(=O)CSc2nccn2C)no1	–	inactive: -2.27% [at 102 µM]
Cc1ccc(S(=O)(=O)N2CCC(C(=O)Nc3ccc(S(=O)(=O)N4CCCC4)cc3)CC2)cc1C	inconclusive: 63.1 µM [inhibitor, partial curve, poor fit]	–
CCOc1ccc(CCNC(=O)Cn2ccc3cc(S(=O)(=O)N4CCCCC4)ccc32)cc1	inconclusive: 7.08 µM [inhibitor, single point]	–
Cc1ccsc1/C=N/NC(=O)c1nnn(-c2nonc2N)c1CN(C)c1ccccc1	inconclusive: 79.4 µM [inhibitor, single point]	–
COC(=O)c1ccc2c(=O)n(CCO)c(=S)[nH]c2c1	inconclusive: 3.55 µM [inhibitor, single point]	–
CCOC(=O)C1=C(CSc2nc(C)cc(C)c2C#N)OC(N)=C(C#N)C1c1cccs1 (configuration not stated)	inconclusive: 5.01 µM [inhibitor, single point]	–
C/C(=N\NC(=O)c1ccccc1Br)c1ccc(N2CCOCC2)cc1	–	inactive: -2.89% [at 102 µM]
CCn1c(O)c(/C=C2\C=NN=C2c2ccc(C)cc2)sc1=S	inconclusive: 25.1 µM [inhibitor, single point]	–
Cc1cccn2c(=O)c3cc(C(=O)NCCc4ccccc4)sc3nc12	inconclusive: 89.1 µM [inhibitor, single point]	–
O=C(COC(=O)Cc1ccc(F)cc1)NCCc1ccccc1	inconclusive: 89.1 µM [inhibitor, partial curve, poor fit]	–
